According to PubChem BioAssay AID686970 (National Center for Advancing Translational Sciences (NCATS), 2013):
The whole screen tested about 360,000 compounds, of which about 6,000 (1.7%) were called active. The inconclusive results got no clear call from the source; some entries with a clear call stand among them for comparison. The call rests on the fitted dose curve; in most records, active means well fitted cell-killing curve with a large enough effect; inconclusive means small, poorly fitted or top-dose-only effect, or effect the other way; inactive means flat fitted curve, though single readings scatter. Potencies of inconclusive entries are left out as doubtful fits.

Test: qHTS for induction of synthetic lethality in tumor cells producing 2HG: qHTS for the HT-1080-NT fibrosarcoma cell line;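 further: NT is the 2HG producing partner of a matched IDH1 knockdown line; nearly all actives have a fitted effect of over 55% in size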;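 on activity, negative = less viability: 0% = DMSO-treated cells and -100% = media-only wells without cells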
Details: HT-1080-NT fibrosarcoma viability, CellTiter-Glo ATP luminescence, 48 h; activity, negative = less viability: at 46.1 µM (top of the series) unless noted
In short: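 Luminescent CellTiter-Glo readout after 48 hours of compound exposure at 37 degrees C defined viability of HT-1080-NT cells. Activity was normalized to DMSO wells and cell-free media wells; concentration-response curves were fitted and assigned curve classes.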
Potency means the concentration at half of the fitted maximal effect; tags describe the fitted curve by direction and shape.

Compound | Potency | activity, negative = less viability
CCOC(=O)C1=C(CSCc2ccccc2)NC(=O)NC1c1cc(C)ccc1C (stereo not drawn) | inconclusive [cytotoxic, single point] | –
CCOc1cc(/C=C2/C(=O)ON=C2C)ccc1O | – | inactive: 7.84%
COc1ccc(C(=O)N2CCOC2CNC(=O)C(=O)NCc2ccc(C)cc2)cc1 (stereo not drawn) | – | inactive: 2.55%
COc1ccc(OC)c(/C=N/NC(=O)c2cccc3ccccc23)c1 | – | inactive: -14.6%
O=C(Nc1cccc(OC(F)(F)F)c1)C1Cc2c(-c3ccc4c(c3)OCO4)ccnc2O1 (stereo not drawn) | inconclusive [cytotoxic, single point] | –
Cc1cc(C)cc(N(C(C)C(=O)NCc2ccc3c(c2)OCO3)S(C)(=O)=O)c1 (stereo not drawn) | – | inactive: -3.26%
COc1nc(-c2ccccc2)cc(-c2ccc3c(c2)OCO3)c1C#N | – | inconclusive: -5.76% [cytotoxic]
COCCNC(=O)C1(C)CCCN(Cc2cc(-c3ccccc3)nn2C)C1 (stereo not drawn) | – | inactive: 13%
COc1ccc(C(CCNCc2ccc(N(C)C)cc2)C(C)C)cc1 (stereo not drawn) | active: 18.4 µM | –
Cc1ccc(CNC(=O)CSc2nc(N3CCCCC3)nc(N3CCCCC3)n2)cc1 | inconclusive [cytotoxic, single point] | –
CCCNC(=O)C1(C)CCCN(C(=O)c2cccnc2Oc2ccccc2)C1 (stereo not drawn) | inconclusive [rising, single point] | –
O=[N+]([O-])c1cccc(SSc2cccc([N+](=O)[O-])c2)c1 | active: 18.4 µM | –
COc1ccccc1/C=N\Nc1cc(C)nc(-n2nc(C)cc2C)n1 | inconclusive [cytotoxic, partial curve] | –
CCN(CC)C(=O)CSc1nnc(-c2ccccn2)n1-c1ccccc1OC | inconclusive [rising, partial curve] | –
Cc1cc(/N=C/C=C2\N(C)c3ccccc3C2(C)C)n(CCC#N)n1 | inconclusive [cytotoxic, single point] | –
CCCCCCCOc1ccc(OC(=O)c2ccncc2)cc1 | – | inactive: 0.0187%
COCC(C)NC(=O)c1cc2c(ccc3ccccc32)oc1=O (stereo not drawn) | – | inactive: 16.8%
O=C(CSCSCC(=O)NCC1CCCO1)NCC1CCCO1 (stereo not drawn) | inconclusive [cytotoxic, full curve, poor fit] | –
CCN(CC)CCCN(C(=O)c1ccccc1C)c1nc(-c2ccc(OC)cc2)cs1 | – | inactive: -26.3%
Cn1c(=O)c2c(ncn2CC(=O)Nc2ccccc2Sc2ccccc2)n(C)c1=O | – | inactive: -19.2%
COc1ccc(/C=C/C(=O)N2CCN(S(=O)(=O)/C=C/c3ccccc3)CC2)cc1OC | inconclusive [cytotoxic, partial curve] | –
Nc1nc(Nc2ccccc2)nc(NC2CCCCC2)c1[N+](=O)[O-] | inconclusive [cytotoxic, single point] | –
CC(C)OCCCNc1ncnc2c1[nH]c1ccccc12 | inconclusive [cytotoxic, single point] | –
COC(=O)C1CCN(C(=O)CN2C(=O)c3ccccc3S2(=O)=O)CC1 | inconclusive [rising, partial curve] | –
Cc1c(C(=O)N/N=C/c2ccc(Cl)cc2)[nH]c2ccc(Cl)cc12 | active: 5.8 µM | –

Compound | Potency | activity, negative = less viability
COc1ccc2c(C#CCCO)c(-c3ccc(S(C)(=O)=O)cc3)sc2c1 | inconclusive [cytotoxic, partial curve] | –
Cc1cccc(C)c1NC(=O)Nc1cccs1 | – | inactive: -7.8%
CC(=O)N(c1ccccc1)c1ccc([N+](=O)[O-])cc1[N+](=O)[O-] | – | inactive: -3.42%
CCC1CCCCN1CCCNC(=O)C1CCN(Cc2nc(-c3ccc(Cl)cc3)oc2C)CC1 (stereo not drawn) | active: 18.4 µM | –
CC(C)(C)OC(=O)NCCCCCNC(=O)c1[nH]cnc1C(=O)N[C@@H](CCCCNC(=O)OC(C)(C)C)C(=O)OC(C)(C)C | inconclusive [cytotoxic, single point] | –
O=C(O)c1ccccc1C(=O)Nc1ccccn1 | – | inactive: 1.36%
Cc1ccc(N=Nc2c(N)nn(-c3ccccc3)c2N)cc1 | active: 10.3 µM | –
O=C1C(Cl)=C(NCc2ccco2)C(=O)c2ccccc21 | inconclusive [cytotoxic, partial curve] | –
CCc1sc(C(=O)N2CCc3cc(OC)c(OC)cc3C2CC(=O)O)cc1C (stereo not drawn) | – | inactive: 4.11%
Cn1ccnc1C(=O)c1cc(SCC(=O)NC2CC2)nc2ccccc12 | – | inactive: 0.437%
O=C(N/N=C/c1ccc2ccccc2c1)c1ccc(COc2ccc3c(c2)CCC3)o1 | inconclusive [cytotoxic, single point] | –
COc1ccc(C2CNC(=O)C2)cc1OC1CCCC1 (stereo not drawn) | inconclusive [rising, single point] | –
CCc1nc2ccc(C(=O)NCC3CCCCC3)cn2c1N(CCC(C)C)CCN(C)C | active: 18.4 µM | –
COc1cccc(CNc2nc3cc(-c4ccccc4)sc3c(=O)n2C)c1OC | inconclusive [cytotoxic, partial curve] | –
Cc1cc2[nH]c(=O)c(=O)[nH]c2cc1S(=O)(=O)NCc1ccc(Cl)cc1 | – | inactive: 17.7%
CCCNC(=O)C1(C)CCN(C(=O)c2cccc(Cl)c2)C1 (stereo not drawn) | inconclusive [rising, partial curve, poor fit] | –
O=C1c2cccc(-c3ccc(C(F)(F)F)cc3)c2C2CC=CCN12 (stereo not drawn) | inconclusive [cytotoxic, single point] | –
O=C(/C=C\c1ccccc1)Nc1ccc(NC(=O)c2ccco2)cc1 | inconclusive [cytotoxic, single point] | –
CN1/C(=C/C(=O)c2nc(S(C)(=O)=O)ncc2Cl)C(C)(C)c2ccccc21 | inconclusive [cytotoxic, single point] | –
O=C(Nc1ccccc1)Nc1ccc(C(=O)N2CCOCC2)cc1 | – | inconclusive: -35.5% [cytotoxic]
Cc1ccc(C(O)CSc2nnc(-c3ccc4ccccc4c3)n2C)cc1 (stereo not drawn) | – | inactive: -0.962%
COc1ccc(OCC(=O)N/N=C/c2ccc(O[C@@H]3O[C@H](CO)[C@@H](O)[C@H](O)[C@H]3O)cc2)cc1 | inconclusive [cytotoxic, full curve] | –
COc1ccc(Cc2nnc(N/N=C/c3ccccc3O)[nH]c2=O)cc1OC | inconclusive [cytotoxic, full curve] | –
CC1CCCN(CCCNC(=O)c2ccc3c(c2)N(Cc2ccc(F)cc2)C(=O)c2ccccc2S3=O)C1 (stereo not drawn) | inconclusive [cytotoxic, single point] | –
COCc1nnc(NC(=O)c2ccc(S(=O)(=O)N(C)Cc3ccccc3)cc2)o1 | inconclusive [cytotoxic, full curve] | –

Compound | Potency | activity, negative = less viability
Oc1cccc(C(Nc2nccs2)c2ccc3cccnc3c2O)c1 (stereo not drawn) | active: 29.1 µM | –
Cc1ccc(NC(=S)NNc2ncc(C(F)(F)F)cc2Cl)cc1 | inconclusive [cytotoxic, partial curve] | –
Cc1cc(Cl)n2c(nc3ccccc32)c1C#N | active: 9.2 µM | –
CCC(=O)Nc1ccc(Br)cn1 | inconclusive [rising, partial curve] | –
COc1cccc(C(=O)NCC(=O)N/N=C/c2ccc3c(c2)OCO3)c1 | – | inactive: 3.21%
Cc1cc(C)c(C)c(OCCNCc2ccccc2)c1 | inconclusive [cytotoxic, partial curve] | –
O=[N+]([O-])c1ccc(/C=N/N=C/c2ccc([N+](=O)[O-])o2)o1 | active: 4.61 µM | –
CCOC(=O)c1c(C)sc2c1N(C(=O)CN(CC)CC)c1cc(Cl)ccc1S2 | inconclusive [cytotoxic, single point] | –
COc1ccc(-c2csc(C(O)c3cccc(Cl)c3)n2)cn1 (stereo not drawn) | inconclusive [cytotoxic, partial curve] | –
O=C(Nc1ccc(Cl)c(Cl)c1)Nc1ccccc1C(=O)O | inconclusive [cytotoxic, full curve, poor fit] | –
COc1cc(OC)c2c(-c3cccc(-c4ccc(CO)cc4)c3)cc(=O)oc2c1 | inconclusive [cytotoxic, full curve] | –
CN1/C(=C\C=[N+](C)c2ccccc2)C(C)(C)c2ccccc21 | active: 7.08 µM | –
Cc1noc(C)c1C(=O)NNc1cc(Cl)ccc1Cl | – | inconclusive: -20% [cytotoxic]
CC(C)(C)N(Cc1ccccc1)C(=O)CSc1ncn[nH]1 | inconclusive [rising, partial curve] | –
COC(=O)[C@]12CCCCC=C1N(Cc1cccc3ccccc13)C(=O)[C@H](CC(=O)NCCCCc1ccccc1)C2 | inconclusive [cytotoxic, single point] | –
Fc1cccc(-c2cc3nc4c(c(NCc5ccco5)n3n2)CCCC4)c1 | inconclusive [cytotoxic, single point] | –
COc1ccc(CCNC(=O)c2ccccc2OCc2c(C)noc2C)cc1 | – | inactive: -2.24%
COc1ccc(-n2c(O)c(/C=N/Nc3nc(C)cc(C)n3)c3ccccc3c2=O)cc1OC | – | inconclusive: -31.4% [cytotoxic]
CCOC(=O)c1nnc(-c2ccc(C)cc2)nc1Oc1ccccc1Cl | active: 23.1 µM | –
CC(C)(C)c1ccc(C(=O)NNc2cc(Cl)cc(Cl)c2)cc1 | inconclusive [cytotoxic, single point] | –
CCOC(=O)C1C(=O)OC(C)(C)C1C(C)C(=O)c1ccccc1 (stereo not drawn) | – | inactive: 3.09%
Cc1ccc(C(C)C)c(OC/C(O)=C(\C#N)c2nc3ccccc3[nH]2)c1 | inconclusive [cytotoxic, single point] | –
COc1ccc(C2=NN(c3ccccc3)C(c3cn(CCC(=O)O)nc3-c3ccccc3)C2)cc1 (stereo not drawn) | – | inactive: -2.51%
